Source: PubChem BioAssay AID463173 (ICCB-Longwood Screening Facility, Harvard Medical School, 2010)
Among all 52,000 compounds or so, about 1,700 (3.3%) were called active. No stated cut-off is given here; in the data, active means survival mostly below about 52% (no sharp cut-off); inactive means mostly above about 56%. Some of the results follow.

What follows are compounds tested on Wild type (assay: S. aureus survival, RN4220 and DeltatarO strains – OD600, teichoic acid synthesis inhibitors, primary screen (AID 463173)). Conditions: S. aureus RN4220 wild type/DeltatarO growth, OD600, 18 h, hits give low values, screened at 18.75 µg/mL (by protocol).

SMILES | survival
C#CC(C)(CC)NC(=O)Cn1nnc(-c2ccc(OCc3c(F)cccc3Cl)cc2)n1 (centres undefined) | inactive: 67%
Cc1cc(C)cc(C(=O)n2nc(C)c(S(=O)(=O)N3CCOCC3)c2C)c1 | inactive: 112%
O=C(CSc1ncc2c(n1)-c1ccccc1N(Cc1ccc(F)cc1)S2(=O)=O)NCCc1ccccc1 | inactive: 73%
Cc1ccc(-n2c(=O)c3ccc(C(=O)NCc4ccccc4Cl)cc3n(CC(=O)Nc3ccc(C)cc3C)c2=O)cc1 | inactive: 86%
CCOC(=O)c1c(NC(=O)c2ccc(F)cc2)sc2c1CCC(CC)C2 (centres undefined) | active: 3%
CCOC(=O)c1cccc(NC(=O)[C@H](CSCc2ccccc2)N2Cc3ccccc3C2=O)c1 | inactive: 76%
Cc1ccc(Nc2cc(C)nc3nncn23)c(C)c1 | inactive: 103%
CCOc1ccc(-c2nc3ccccc3c(=O)o2)cc1 | inactive: 83%
O=c1[nH]c(C2CCCN(S(=O)(=O)c3ccccc3)C2)nc2c1nnn2Cc1ccc(OC(F)(F)F)cc1 (centres undefined) | inactive: 85%
Cc1cc(C)nc(NCC(C)c2ccccc2)n1 (centres undefined) | inactive: 114%
O=C(C1CCC(Cn2c(=O)c3sccc3n(Cc3ccc(F)cc3)c2=O)CC1)N1CCOCC1 (centres undefined) | inactive: 68%
CN1C(=O)C2(c3ccccc31)N(c1ccc(Br)cc1)C(=O)CS2(=O)=O (centres undefined) | inactive: 73%
COc1ccc2c(c1)-c1nc(NC(=O)c3cc(OC)c(OC)c(OC)c3)sc1CC2 | inactive: 75%
Cc1cc(C)cc(Nc2nc3cc(Cl)c(Cl)cc3nc2-n2nc(C)cc2C)c1 | inactive: 81%
Cn1cc(-c2cc3n(n2)CCC(=O)N3CCCC(=O)NCc2ccccc2Cl)c2ccccc21 | inactive: 120%
CC(C)CCn1c(SCc2cccc(F)c2)nc2ccsc2c1=O | inactive: 76%
CN1C(=O)c2[nH]nc(-c3ccc(F)cc3)c2C1c1cccc(O)c1 (centres undefined) | inactive: 99%
CCc1[nH]nc2c1C1(C(=O)N(CC)c3ccccc31)C(C#N)=C(N)O2 (centres undefined) | inactive: 112%
CCOc1ccccc1C(=O)N1CCOCC1 | inactive: 124%
CCc1ccc2oc(C(=O)NCc3ccccc3)cc(=O)c2c1 | inactive: 94%
Cc1ccc(NC(=O)Cn2c(-c3nonc3N)nc3ccccc32)c(Br)c1 | inactive: 95%
O=C(O)C1CCCCC1C(=O)N1CCc2ccccc21 (centres undefined) | inactive: 110%
CCCCOc1ccc(C2C(=O)N(C3CCCCC3)CC(=O)N2CCCC)cc1 (centres undefined) | inactive: 72%

SMILES | survival
Cc1ccc(N2CCN(c3ccc(C)cc3)C2c2ccc(C)o2)cc1 | inactive: 117%
CCn1nc(CCC(=O)O)c2ccccc2c1=O | inactive: 114%
Cc1ccc(-n2ncc(C(=O)NCCCN3CCc4ccccc4C3)c2C2CCN(C(=O)OC(C)(C)C)CC2)c(C)c1 | inactive: 82%
CCCCN(CC)CCCNC(=O)c1ccc2c(c1)NC(=O)CN2C | inactive: 57%
COc1cccc(CNC(=O)CCc2c(C)c3ccc(O)c(C)c3oc2=O)c1 | inactive: 93%
Cc1ccc(OCCOCCn2c(-c3ccc(Cl)cc3)nc3ccccc3c2=O)cc1 | inactive: 44%
CCOC(=O)c1noc2ncn(CC(=O)Nc3ccccc3OC)c(=O)c12 | inactive: 133%
O=C(/C(=C\c1ccc(F)cc1)n1ccccc1=O)N1CCCC1 | inactive: 107%
COc1ccc2c(c1)CCc1c(C(=O)Nc3ccc(C#N)cc3)noc1-2 | inactive: 77%
COc1cccc(CNC(=O)Cn2nc(N3CCN(c4ccccc4OC)CC3)ccc2=O)c1 | inactive: 93%
CC(C(=O)N1CCCc2ccccc21)N1C(=O)c2ccccc2C1=O (centres undefined) | inactive: 107%
S=C(NNc1nc(N2CCCCC2)nc(N2CCCCC2)n1)NC1CCCCC1 | inactive: 127%
COc1ccc(-n2c(SCc3ccccc3)nc3c([nH]c4ccccc43)c2=O)cc1 | inactive: 148%
Cc1c(Cl)cccc1NC(=O)C(C)n1c(=O)cc(C)c2c(C)nn(-c3ccccc3)c21 (centres undefined) | inactive: 69%
COc1ccc(C)cc1NC(=O)CN1C(=O)COc2ccc(S(=O)(=O)N3CCC(C)CC3)cc21 | inactive: 89%
CCCc1[nH]nc2c1C(CCC)C(C#N)=C(N)O2 (centres undefined) | inactive: 96%
CCOc1ccc(-n2c(=O)c3c(C)c(C)sc3n(Cc3ccccc3C)c2=O)cc1 | inactive: 89%
Cc1n[nH]c(=S)n1CC(=O)N1c2ccccc2CCc2ccccc21 | inactive: 102%
CNC(=O)c1c(NC(=O)c2nc(SCc3ccc(C)cc3)ncc2Cl)sc2c1CCCC2 | inactive: 79%
O=C(CNC1CC1)NCc1cccs1 | inactive: 98%
CCOC(=O)c1cc(S(=O)(=O)N2CCN(c3cccc(C)c3C)CC2)[nH]n1 | inactive: 72%
Cc1ccc(NC(=O)Nc2cn(CC(C)C)c(=O)c3ccccc23)cc1N(C)C | inactive: 71%
COc1cccc(CNC(=O)C2CCN(C(=O)c3cnn(-c4ccccc4)c3-n3cccc3)CC2)c1 | inactive: 81%

SMILES | survival
COc1ccccc1OCC(=O)N1CCC(c2nc3ccccc3o2)CC1 | active: -12%
Cc1ccc(-n2ncc(C(=O)NC3CCCCC3)c2C2CCN(C(=O)OC(C)(C)C)CC2)cc1 | inactive: 136%
CCN(c1ccccc1C)S(=O)(=O)c1nnc(NC(=O)c2ccco2)s1 | inactive: 49%
COc1ccc(Nc2nnc(-c3ccc(C)c(S(=O)(=O)NCCO)c3)c3ccccc23)cc1C(N)=O | inactive: 70%
CCCS(=O)(=O)c1ncc(Cl)c(C(=O)Nc2c(C(=O)Nc3ccccc3)oc3ccccc23)n1 | inactive: 62%
COc1ccc(-c2c(C)nn3c(C(F)(F)F)cc(-c4ccccc4)nc23)cc1OC | inactive: 72%
COc1ccc(N(C)C(=O)c2cc3c(s2)-c2c(C)cccc2OC3)c(OC)c1 | active: 12%
Cc1ccc(NC(=O)c2c(C)oc3c2C2=NCCN2C=N3)cc1F | inactive: 76%
COc1ccc(CNc2nc3c(-c4cccc(F)c4)nnn3c3ccccc23)cc1 | inactive: 86%
CCc1c(C)nc2cc(-c3cc(OC)cc(OC)c3)nn2c1NCCCN1CCOCC1 | inactive: 99%
CN(CC(=O)NCc1ccc(F)cc1)S(=O)(=O)c1ccc2[nH]c3c(c2c1)CCCC3 | inactive: 128%
COC(=O)c1cc2sccc2n1CC(=O)Nc1ccc(OC)c(OC)c1 | inactive: 76%
Cc1cccn2c(=O)cc(CSc3nnc(NC(=O)COc4ccccc4)s3)nc12 | inactive: 71%
O=C(Cn1cccc1C(=O)c1ccccc1)NCc1ccccc1Cl | inactive: 87%
O=C(Nc1cccnc1)c1cc(-c2ccc(Cl)cc2)on1 | inactive: 84%
O=C(c1ccc2c(c1)N(Cc1cccc(F)c1)C(=O)c1ccccc1S2)N1CCC2(CC1)OCCO2 | inactive: 77%
COc1ccc(C2=C(N3CCN(c4cc(C)ccc4C)CC3)c3ccccc3C2=O)cc1 | inactive: 41%
CCc1ccc(-n2c(=O)c3sc4ccccc4c3n(CC(=O)NCc3ccccc3)c2=O)cc1 | inactive: 96%
Cc1c(Cl)cccc1NC(c1ccc(F)cc1)c1nnc(-c2ccccc2)o1 (centres undefined) | inactive: 112%
O=C(CNCC1CCCCC1)Nc1ccccc1N1CCCCC1 | inactive: 100%
Cc1ccc(-n2c(=O)c3c4c(sc3n(CC(=O)Nc3cccc(Cl)c3)c2=O)CCCCC4)cc1C | inactive: 103%
Fc1ccc(C(NCCc2ccccc2)c2nnc(-c3ccccc3Cl)o2)cc1 (centres undefined) | inactive: 94%
Cc1ccc(C)c(CN2CCCN(CC(=O)Nc3ccc(C)c(C)c3)S2(=O)=O)c1 | inactive: 73%

SMILES | survival
COc1ccc2nc(SCC(=O)O)[nH]c2c1 | inactive: 100%
Cc1ccc(S(=O)(=O)NCc2nc3nc(C)cc(C)n3n2)cc1 | inactive: 120%
Cc1cccc(C)c1OCC(=O)NC(Cc1c[nH]c2ccccc12)C(=O)O (centres undefined) | inactive: 139%
CSc1nnc(C2CCCN(CC(=O)N3CCCC3)C2)n1C (centres undefined) | inactive: 84%
CCOC(=O)c1c(S(=O)(=O)N2CCC(C(=O)N3CCN(c4ccccc4F)CC3)CC2)c(C)n(C)c1C | inactive: 78%
Cn1cc(C(=O)NCc2ccccc2Cl)c(=O)c2cc(S(=O)(=O)N3CCCCCC3)ccc21 | inactive: 69%
O=C1c2ccccc2-c2nc3ncnn3c(-c3ccc4c(c3)OCO4)c21 | inactive: 104%
COc1cc(Cl)c(C)cc1NC(=O)CCc1nc2cccnc2n1Cc1cccs1 | inactive: 115%
CCN(CC)CCCNC(=O)c1ccc(Cn2c(=O)[nH]c3cc(OC)c(OC)cc3c2=O)cc1 | inactive: 65%
CCOC(=O)c1ccc(NC(=O)CCCn2c(=O)c3cccn3c3cccnc32)cc1 | inactive: 87%
CC(C)N(Cc1ccccc1)C(=O)Cn1ncc2c3ccccc3n(Cc3ccccc3)c2c1=O | inactive: 96%
COc1ccc(CCNC(=O)c2cn(C)c3ccc(S(=O)(=O)N4CCOCC4)cc3c2=O)cc1OC | inactive: 90%
Cc1nn(-c2ccc(Cl)cc2)c2nc(-c3cccnc3)cc(C(F)(F)F)c12 | inactive: 80%
COc1ccc(NC(=O)C2CCN(S(=O)(=O)c3c(C)noc3/C=C/c3cccs3)CC2)cc1 | inactive: 87%
Cc1cccc(Cn2c(SCc3ccc(C(=O)NC4CCCC4)cc3)nc3cccnc32)c1 | inactive: 148%
O=C(CSc1ccccc1)NCc1ccc2c(c1)CCN2C(=O)c1ccccc1 | inactive: 57%
COc1cccc(-c2noc(CCCC(=O)NCc3ccco3)n2)c1 | inactive: 117%
Cc1ccccc1OCCCCn1c(CCNC(=O)C(C)(C)C)nc2ccccc21 | inactive: 65%
COc1ccc(OC)c(S(=O)(=O)NCC(c2ccco2)S(=O)(=O)c2ccccc2)c1 (centres undefined) | inactive: 75%
N#Cc1ccc(NC(=O)CCC(=O)O)cc1 | inactive: 99%
